# Experimental data: the supplement of paper PMC8728848
# This is one part of the list.
# B1: LCA (Lens culinaris), P02870 (protein)
# chain: MASLQTQMISFYLIFLSILLTTIFFFKVNSTETTSFSITKFSPDQKNLIFQGDGYTTKGKLTLTKAVKSTVGRALYSTPIHIWDRDTGNVANFVTSFTFVIDAPSSYNVADEFTFFIAPVDTKPQTGGGYLGVFNSKEYDKTSQTVAVEFDTFYNAAWDPSNKERHIGIDVNSIKSVNTKSWNLQNGERANVVIAFNAATNVLTVTLTYPNSLEEENVTSYTLNEVVPLKDVVPEWVRIGFSATTGAEFAAHEVHSWSFHSELGGTSSSKQAADA
# Tests used:
# Test in all cases: glycan array binding signal (z-score within array); higher = stronger binding
# Settings in all cases: glycan notation: IUPAC condensed, linker removed
# [1] = molecular target: Fuc(a1-2)[GalNAc(a1-3)]Gal(b1-3)GlcNAc(b1-2)Man(a1-3)[Fuc(a1-2)[GalNAc(a1-3)]Gal(b1-3)GlcNAc(b1-2)Man(a1-6)]Man(b1-4)GlcNAc(b1-4)[Fuc(a1-6)]GlcNAc
# Procedure, shortened: (§1)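 Glycan array binding is given as a within-array Z-score, which can be read as non-binding when negative. The arrays, 3228 of them, came from the Consortium for Functional Glycomics database and were retained only where the protein sequence was available. Z-scores were averaged across arrays of the same protein sequence at different concentrations or buffers and across linkers.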
# [2] = molecular target: Fuc(a1-2)[GalNAc(a1-3)]Gal(b1-3)GlcNAc(b1-3)GalNAc
# Procedure, shortened: as §1
# [3] = molecular target: Fuc(a1-2)[GalNAc(a1-3)]Gal(b1-3)GlcNAc(b1-6)GalNAc
# Procedure, shortened: as §1
# [4] = molecular target: Fuc(a1-2)[GalNAc(a1-3)]Gal(b1-4)Glc
# Procedure, shortened: as §1
# [5] = molecular target: Fuc(a1-2)[GalNAc(a1-3)]Gal(b1-4)GlcNAc
# Procedure, shortened: as §1
# [6] = molecular target: Fuc(a1-2)[GalNAc(a1-3)]Gal(b1-4)GlcNAc(b1-2)Man
# Procedure, shortened: as §1
# [7] = molecular target: Fuc(a1-2)[GalNAc(a1-3)]Gal(b1-4)GlcNAc(b1-2)Man(a1-3)[Fuc(a1-2)[GalNAc(a1-3)]Gal(b1-4)GlcNAc(b1-2)Man(a1-6)]Man(b1-4)GlcNAc(b1-4)GlcNAc
# Procedure, shortened: as §1
# [8] = molecular target: Fuc(a1-2)[GalNAc(a1-3)]Gal(b1-4)GlcNAc(b1-2)Man(a1-3)[Fuc(a1-2)[GalNAc(a1-3)]Gal(b1-4)GlcNAc(b1-2)Man(a1-6)]Man(b1-4)GlcNAc(b1-4)[Fuc(a1-6)]GlcNAc
# Procedure, shortened: as §1
# [9] = molecular target: Fuc(a1-2)[GalNAc(a1-3)]Gal(b1-4)GlcNAc(b1-3)Gal(b1-4)GlcNAc
# Procedure, shortened: as §1
# [10] = molecular target: Fuc(a1-2)[GalNAc(a1-3)]Gal(b1-4)GlcNAc(b1-3)Gal(b1-4)GlcNAc(b1-3)Gal(b1-4)GlcNAc
# Procedure, shortened: as §1
# [11] = molecular target: Fuc(a1-2)[GalNAc(a1-3)]Gal(b1-4)GlcNAc(b1-3)GalNAc
# Procedure, shortened: as §1
# [12] = molecular target: Fuc(a1-2)[GalNAc(a1-3)]Gal(b1-4)GlcNAc(b1-3)[Fuc(a1-2)[GalNAc(a1-3)]Gal(b1-4)GlcNAc(b1-6)]GalNAc
# Procedure, shortened: as §1
# [13] = molecular target: Fuc(a1-2)[GalNAc(a1-3)]Gal(b1-4)GlcNAc(b1-6)GalNAc
# Procedure, shortened: as §1
# [14] = molecular target: Fuc(a1-2)[GalNAc(a1-3)]Gal(b1-4)[Fuc(a1-3)]GlcNAc
# Procedure, shortened: as §1
# [15] = molecular target: Fuc(a1-2)[GalNAc(a1-3)]Gal(b1-4)[Fuc(a1-3)]GlcNAc(b1-3)GalNAc
# Procedure, shortened: as §1
# [16] = molecular target: Fuc(a1-2)[GalNAc(a1-4)]Gal(b1-4)GlcNAc
# Procedure, shortened: as §1
# [17] = molecular target: Fuc(a1-2)[GalNAc(b1-3)]Gal
# Procedure, shortened: as §1
# [18] = molecular target: Fuc(a1-3)GlcNAc
# Procedure, shortened: as §1
# [19] = molecular target: Fuc(a1-3)[Gal(b1-4)]Glc6S
# Procedure, shortened: as §1
# [20] = molecular target: Fuc(a1-3)[Gal(b1-4)]GlcNAc
# Procedure, shortened: as §1
# [21] = molecular target: Fuc(a1-3)[Gal(b1-4)]GlcNAc(b1-2)Man
# Procedure, shortened: as §1
# [22] = molecular target: Fuc(a1-3)[Gal(b1-4)]GlcNAc(b1-2)Man(a1-3)[Fuc(a1-3)[Gal(b1-4)]GlcNAc(b1-2)Man(a1-6)]Man(b1-4)GlcNAc(b1-4)GlcNAc
# Procedure, shortened: as §1
# [23] = molecular target: Fuc(a1-3)[Gal(b1-4)]GlcNAc(b1-2)Man(a1-3)[Fuc(a1-3)[Gal(b1-4)]GlcNAc(b1-2)Man(a1-6)]Man(b1-4)GlcNAc(b1-4)[Fuc(a1-6)]GlcNAc
# Procedure, shortened: as §1
# [24] = molecular target: Fuc(a1-3)[Gal(b1-4)]GlcNAc(b1-3)Gal(b1-3)[Fuc(a1-4)]GlcNAc
# Procedure, shortened: as §1
# [25] = molecular target: Fuc(a1-3)[Gal(b1-4)]GlcNAc(b1-3)Gal(b1-4)[Fuc(a1-3)]GlcNAc
# Procedure, shortened: as §1
# [26] = molecular target: Fuc(a1-3)[Gal(b1-4)]GlcNAc(b1-3)Gal(b1-4)[Fuc(a1-3)]GlcNAc(b1-3)Gal(b1-4)[Fuc(a1-3)]GlcNAc
# Procedure, shortened: as §1
# [27] = molecular target: Fuc(a1-3)[Gal(b1-4)]GlcNAc(b1-3)GalNAc
# Procedure, shortened: as §1
# [28] = molecular target: Fuc(a1-3)[Gal(b1-4)]GlcNAc(b1-4)Gal(b1-4)[Fuc(a1-3)]GlcNAc
# Procedure, shortened: as §1
# [29] = molecular target: Fuc(a1-3)[Gal(b1-4)]GlcNAc(b1-4)Gal(b1-4)[Fuc(a1-3)]GlcNAc(b1-4)Gal(b1-4)[Fuc(a1-3)]GlcNAc
# Procedure, shortened: as §1
# [30] = molecular target: Fuc(a1-3)[Gal(b1-4)]GlcNAc(b1-6)GalNAc
# Procedure, shortened: as §1
# [31] = molecular target: Fuc(a1-3)[Gal(b1-4)]GlcNAc(b1-6)[Gal(b1-3)GlcNAc(b1-3)]Gal(b1-4)Glc
# Procedure, shortened: as §1
# [32] = molecular target: Fuc(a1-3)[Gal(b1-4)]GlcNAc6S
# Procedure, shortened: as §1
# [33] = molecular target: Fuc(a1-3)[Gal3S(b1-4)]Glc
# Procedure, shortened: as §1
# [34] = molecular target: Fuc(a1-3)[Gal3S(b1-4)]GlcNAc
# Procedure, shortened: as §1
# [35] = molecular target: Fuc(a1-3)[Gal3S(b1-4)]GlcNAc6S
# Procedure, shortened: as §1
# [36] = molecular target: Fuc(a1-3)[GalNAc(b1-4)]GlcNAc
# Procedure, shortened: as §1
# [37] = molecular target: Fuc(a1-3)[GalNAc(b1-4)]GlcNAc6S
# Procedure, shortened: as §1
binder,measurement,setting,value
B1,glycan array binding signal (z-score),[1],0.539
same,glycan array binding signal (z-score),[2],-0.179
same,glycan array binding signal (z-score),[3],-0.268
same,glycan array binding signal (z-score),[4],-0.232
same,glycan array binding signal (z-score),[5],-0.215
same,glycan array binding signal (z-score),[6],-0.205
same,glycan array binding signal (z-score),[7],-0.228
same,glycan array binding signal (z-score),[8],0.305
same,glycan array binding signal (z-score),[9],-0.225
same,glycan array binding signal (z-score),[10],-0.048
same,glycan array binding signal (z-score),[11],-0.205
same,glycan array binding signal (z-score),[12],-0.236
same,glycan array binding signal (z-score),[13],-0.253
same,glycan array binding signal (z-score),[14],-0.095
same,glycan array binding signal (z-score),[15],-0.132
same,glycan array binding signal (z-score),[16],-0.22
same,glycan array binding signal (z-score),[17],-0.257
same,glycan array binding signal (z-score),[18],-0.186
same,glycan array binding signal (z-score),[19],-0.182
same,glycan array binding signal (z-score),[20],-0.209
same,glycan array binding signal (z-score),[21],-0.24
same,glycan array binding signal (z-score),[22],-0.237
same,glycan array binding signal (z-score),[23],-0.245
same,glycan array binding signal (z-score),[24],-0.164
same,glycan array binding signal (z-score),[25],-0.17
same,glycan array binding signal (z-score),[26],-0.236
same,glycan array binding signal (z-score),[27],-0.185
same,glycan array binding signal (z-score),[28],-0.205
same,glycan array binding signal (z-score),[29],-0.222
same,glycan array binding signal (z-score),[30],-0.194
same,glycan array binding signal (z-score),[31],-0.233
same,glycan array binding signal (z-score),[32],-0.21
same,glycan array binding signal (z-score),[33],-0.229
same,glycan array binding signal (z-score),[34],-0.201
same,glycan array binding signal (z-score),[35],-0.197
same,glycan array binding signal (z-score),[36],-0.176
same,glycan array binding signal (z-score),[37],-0.185
